In the supplement of paper PMC11417369:
± gives the standard deviation of the averaged measurements. The list shows a part of the results.

tested on: PfAP2-G AP2 domain (GST-tagged); experiment: gcPBM binding intensity (ln(normalized median fluorescence intensity)); higher = stronger DNA binding
Method in brief: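 An Agilent 4 × 180k array of primer-extended double-stranded 36-bp intergenic genomic probes, with negative controls, was incubated for 1 h with GST-tagged P. falciparum DNA-binding domains expressed in E. coli. Alexa488 anti-GST antibody detected bound protein, scanned at 488 nm. Binding intensity is the highest Masliner-normalised natural-log median intensity across replicate spots of either probe orientation.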

Sequence | gcPBM binding intensity (ln)
TAATAAAGTGAATAATGTACATTTTATTTATTATAT [XGTACX_site6614] | 10.9 ± 0.41
ATTATATATCCCTATTCACACATGTATTATATAAAT [CACACA_site5486] | 10.2 ± 0.12
GAAAAATTAAAAATAACACACACATATATATATTTA [CACACA_site8896] | 9.83 ± 0.071
AAGGAAATATAATATACACACATAAGTGTACTTATA [CACACA_site4030] | 11.6 ± 1.1
CCTATATTAAAACAAGCACACAATCGCATAATATCC [CACACA_site9052] | 10.12 ± 0.014
TCAGTAATACTTGAATGTACTTATATTGTTTGTTTG [XGTACX_site6449] | 11.2 ± 0.69
AAAAAAATTAAATGTACACACACCTTAAACAATGTC [CACACA_site1855] | 11.4 ± 0.73
TTAACATATTTGTTAGTGCATTTTGATATTACACAT [GTGCAC_site9978] | 9.895 ± 0.021
AATGCCTTGTTGAGGTGTACTGAATGTTATTTTAAT [XGTACX_site3255] | 11.1 ± 0.59
TTTTTTTAAAGAATTATCATAAAATGATTGCATCAT [XGTACX_negctrl_site141] | 9.545 ± 0.007
ATAAATAAATAAATAAATAAATAAATAAATATATAT [CACACA_negctrl_site1728] | 9.545 ± 0.049
ATTTATTTTATATGTTGTACAAACATTTTAAAACAT [XGTACX_site6919] | 11.2 ± 0.62
TCTTTTTCTTGACGAGTGCAAAAATTGTGTTTGAAA | 10.3 ± 0.32
CTAATATCTGTATGCACACACAATAAATACATATTT [CACACA_site5797] | 10.09 ± 0.042
TGTGTATTTATAAATACACACCAAATGTTAATATAT [CACACA_site6904] | 10.2 ± 0.21
GTAAAATGATATAAATGTACATAATATATATATGTC [XGTACX_site4049] | 10.9 ± 0.45
ATTTTATCTTTAAACTGTACGTATTAATATGTAGAA [XGTACX_site3077] | 11.7 ± 1.1
ATAAAAATATTATAAGCACACATATATATATATATA [CACACA_site8781] | 10.2 ± 0.58
AGTATACATATATATACACACATATATATATATATA [CACACA_site300] | 10.1 ± 0.52
TGTCATATTATAAATTGTACAAATAGTATAATTATT [XGTACX_site581] | 11 ± 0.61
TTATGCCTTTAATATACACACTAATATTTTTTTGGC [CACACA_site5171] | 9.895 ± 0.021
AATTTTTTTTTTAGACGTACAAGAAAAAACAAAAAA [XGTACX_site4990] | 11.7 ± 0.75
TATATGAAGTACACAATACACACTAATTATATATAA [CACACA_site2608] | 11.5 ± 1

Sequence | gcPBM binding intensity (ln)
AACTATAAAAATTTTACACACTGTTTTTAAATAATG [CACACA_site5928] | 10.085 ± 0.007
TTATGTTCTTTAAAACCACACACCCCCCAACCCCCC [CACACA_site8742] | 11.6 ± 0.87
TATATATGCATATACATACACACATAACACATACGT [CACACA_site3833] | 10.03 ± 0.028
AATGTTTTATTTTGAAGTACATTTAAGAATTTTTTA [XGTACX_site7814] | 11.2 ± 0.67
ATATAATAATAAGGCACACAAATTAAAATATAAAAA [CACACA_site3710] | 10.2 ± 0.16
TATGAAATTATAATTACACACAGGAAAATAAAATGT [CACACA_site1517] | 10.3 ± 0.15
TAAATTTTTTCCTCCTGTACTTATTATATTTTTTTG [XGTACX_site1572] | 11.4 ± 0.9
ATTAATTCGTTTTGTACACACATAATGAGTAATTTA [CACACA_site7118] | 11.2 ± 0.78
TTTTGACCATATCTGTTGCACTTTTGTGCTATTCGA | 10.6 ± 0.41
CATTATGTCGTAAATACACACATACATATACATACA [CACACA_site8383] | 10.3 ± 0.23
AAGGATCACAGACAAACACACATATATATATATATA [CACACA_site4469] | 10.1 ± 0.38
AAATAATTTGTTGACACACACACACCCATACAGATA [CACACA_site5291] | 10.5 ± 0.38
AGCCAAACCTTAAATTTAGCAATAAGTTTACAGGTC [CACACA_negctrl_site360] | 9.68 ± 0.23
ATTAAAAGTTTATACAAATAAAAAACAAAACAAAAA [CACACA_negctrl_site1030] | 10.1 ± 0.33
ATAAAAATTGATTATACACACGCGCCCAGACAACAA [CACACA_site5870] | 11.1 ± 0.49
ATATAGATGCATAATACACACATCAGATAATTAACC [CACACA_site6871] | 10.03 ± 0.078
TTTTTTTTTTTTTTTTGTACTCATATCTACTATCAT [XGTACX_site274] | 11.2 ± 0.97
ACAAGGTTTACGGGTAGTACAAATTTTTGAACATCT [XGTACX_site4739] | 11.5 ± 0.69
TTTTTTCTTTTTTTTTGTACATATAATATTTATGTT [XGTACX_site302] | 10.9 ± 0.42
ATATATATATGTATATGTACATATATATGGTAACTC [XGTACX_site681] | 11.2 ± 0.73
AAAAGAAAAAAAAAAAAAAAAAAAATTAAAATATAA [CACACA_negctrl_site17] | 9.37 ± 0.057
TAATGGTTATCACTAACATGCAGTAATATTATATAG [TGCATGCA_site176] | 9.885 ± 0.021
TCGTATTTAAAATGTAGTACATAATTTGAAAAATAA [XGTACX_site5832] | 11.6 ± 0.83

Sequence | gcPBM binding intensity (ln)
ATATAATATTTATATGCACACTTTTCTATATATAAG [CACACA_site6100] | 10.05 ± 0.057
TAAAATATTATTTATTTACACACCAATCTTCTTTTC [CACACA_site9320] | 9.815 ± 0.078
ATAAGAAAAAGACACACACACAAAAAAAAAAAAAAA [CACACA_site2828] | 9.95 ± 0.49
TAAATAAATTATTTTCGTACTTATTTATTTTAATTA [XGTACX_site283] | 10.8 ± 0.6
CTTAGGTTAAAAGTGTGTACATAAAAACATATATAA [XGTACX_site2213] | 11.5 ± 0.87
TACTATTATAAATATGTGCACTTCAATAATATACTA | 10.3 ± 0.27
AAGTTATTGATATATACACACAAATATAAATAATAT [CACACA_site6695] | 10.05 ± 0.085
AATACATATCAAAGCTGTACAAAGTAAATTTTACTT [XGTACX_site3525] | 10.8 ± 0.59
TTCAATAGGTATAATTGTACTTAATAATATATTGTT [XGTACX_site8363] | 11.1 ± 0.73
AAAAAAAAAAAACACACACACAAATACAAATGGTAA [CACACA_site1720] | 9.995 ± 0.021
AAAAAAAAAATATACACACACATATAAATATAAATA [CACACA_site7574] | 9.855 ± 0.007
AAATAAAAAACAGTGGCACACATTATGTATCCACCT [CACACA_site3756] | 10.5 ± 0.26
TTAAAGTAGAGAAAATGTACATTTTATTAACACAAT [XGTACX_site6369] | 10.9 ± 0.45
TAAATTCCTACATACGCATGTACATTAAAATTTTAA [TGCATGCA_site215] | 11.1 ± 0.69
AAAATAAAAAGAAAAAGAAAAAAGGGGGGGTAGGGG [CACACA_negctrl_site1048] | 11.4 ± 0.88
CTTTAAGTTATATGAAGTACAATTTAAAAAAATGAA [XGTACX_site358] | 11.2 ± 0.75
TACAGATACAGATACACACACACACCGAAATAAATA [CACACA_site4865] | 10.2 ± 0.4
ATACATTCAATGAAATGTACGTTTATTTACAGAAGA [XGTACX_site2999] | 11.2 ± 0.76
TATATATACATACATACACACATATATATATATATT [CACACA_site4110] | 10.02 ± 0.028
GAAAGGATATATATATATATATATATAATACATTTC [GTGCAC_negctrl_site677] | 9.455 ± 0.007
ACATATAATATATAATGTACAAAATTGTTAACAATA [XGTACX_site3798] | 10.7 ± 0.39
GATGAAAATAGAAATACACACTAAAAAATAAAATTA [CACACA_site4764] | 10.02 ± 0.099
TGCATACTTTTGTAAGTGCATAAAATCGTACCATGC | 10.8 ± 0.52

Sequence | gcPBM binding intensity (ln)
GAAATAATTCGATGTGCATGTAACGTTTCCCCAAAG [TGCATGCA_site122] | 10.3 ± 0.22
AAGAGAAAAATATATACACACACATAAATATATACA [CACACA_site8573] | 9.9 ± 0.085
AAGGGGTAAAGAAAAACACACAAAAAATAAAAATAT [CACACA_site361] | 10.2 ± 0.35
CGTATTTATATAATTACACACCATATTATAATTATT [CACACA_site3760] | 10 ± 0.16
CCAAAAAAAAAAAAAAGTACATAAAAACAAGAGAAT [XGTACX_site3037] | 11.5 ± 0.9
AATTAAAAAAAATACACACACACATACACATATATA [CACACA_site3298] | 10.2 ± 0.22
TAGAAGCATGGACACACACACATACATACCCATACA [CACACA_site4916] | 10.9 ± 0.58
TTATTTTTCCGGAATAGTACATAGACGCAGATATAA [XGTACX_site6356] | 11.2 ± 0.68
ATTAACTATCATAACACACACAGTAGACATATTTTT [CACACA_site1822] | 9.995 ± 0.078
AAATCATTTAAGAACACACAAATATTTCCATTAAAT [CACACA_site6808] | 10.1 ± 0.11
AAGATAATATTTTCTTGTACGCATGCACATACAAAT [XGTACX_site7181] | 11.6 ± 1.1
CTTTTCTCCCTCCATAGTACAATTATAAAAATATAT [XGTACX_site3090] | 10.7 ± 0.63
ATGCAAAGTTTATAAAGTACATAAGTCAAAATAAAA [XGTACX_site1441] | 11.1 ± 0.67
TCTATATCTTTCAACACACAAATTTTTTTTTCCATC [CACACA_site4238] | 9.95 ± 0.099
AAAAAAAAAAAAAAAGTGCACAGTCGTTTTAAAAAA [GTGCAC_site9848] | 10.8 ± 0.54
CTCAATGTTTGCGATACATGCAAAAATTTTTAGAAT [TGCATGCA_site165] | 10.1 ± 0.24
ACAAACATTAGGGAAGCATGCAATATTTTTTTACAT [TGCATGCA_site372] | 9.72 ± 0.071
CTTATTATTATATGGGTGCTCATATTTTTCTTTTTT [GTGCAC_site9723] | 9.99 ± 0.014
ATATATATATATAAATGTACATTTTTCAATAGTTTT [XGTACX_site7449] | 10.8 ± 0.4
TATAAATAAATAGATACACACATATATATAAATACA [CACACA_site155] | 9.98 ± 0.014
TACTTTTTATTTTCTTGTACTTAATTGTCCAGATTT [XGTACX_site4334] | 11.3 ± 0.84
